What all share (assay): glycan array binding signal (z-score within array); higher = stronger binding
Settings in all cases: glycan notation: IUPAC condensed, linker removed

One assay has as its target Neu5Ac(a2-8)Neu5Ac. Put shortly:
(§1)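 Negative Z-scores can be read as non-binding. The Z-score is calculated within each array and then averaged across arrays of one protein sequence at different concentrations or buffers and across linkers. Arrays, 3228 in all, were curated from the Consortium for Functional Glycomics database and kept only where the protein sequence was available.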

The target of assay [1] is Neu5Ac(a2-8)Neu5Ac(a2-3)Gal(b1-4)Glc. The gist of the method:
as §1

The target of assay [2] is Neu5Ac(a2-8)Neu5Ac(a2-3)[GalNAc(b1-4)]Gal(b1-4)Glc. The gist of the method: as §1
Assay [3] has as its target Neu5Ac(a2-8)Neu5Ac(a2-8)Neu5Ac. The gist of the method:
as §1

The target of assay [4] is Neu5Ac(a2-8)Neu5Ac(a2-8)Neu5Ac(a2-3)Gal(b1-4)Glc. Put shortly: as §1
Assay [5] deals with Neu5Ac(a2-8)Neu5Ac(a2-8)Neu5Ac(a2-3)[GalNAc(b1-4)]Gal(b1-4)Glc. The gist of the method:
as §1

The target of assay [6] is Neu5Ac(a2-8)Neu5Ac(a2-8)Neu5Ac(a2-8)Neu5Ac(a2-3)[GalNAc(b1-4)]Gal(b1-4)Glc. The gist of the method: as §1
For assay [7], the target named is Neu5Ac(b2-6)Gal(b1-4)GlcNAc. Put shortly: as §1
Another assay addresses Neu5Ac(b2-6)GalNAc. Put shortly:
as §1

The target in assay [8] is Neu5Ac9Ac(a2-3)Gal(b1-3)GlcNAc. Put shortly:
as §1

The target in assay [9] is Neu5Ac9Ac(a2-3)Gal(b1-4)GlcNAc. Put shortly: as §1
The target of assay [10] is Neu5Ac9Ac(a2-6)Gal(b1-4)GlcNAc. The gist of the method:
as §1

Assay [11] deals with Neu5Gc(a2-3)Gal(b1-3)GlcNAc. The gist of the method: as §1
Assay [12] deals with Neu5Gc(a2-3)Gal(b1-3)[Fuc(a1-4)]GlcNAc. The gist of the method: as §1
A further assay deals with Neu5Gc(a2-3)Gal(b1-4)Glc. Put shortly: as §1
The target in assay [13] is Neu5Gc(a2-3)Gal(b1-4)GlcNAc. Put shortly:
as §1

In assay [14] the target is Neu5Gc(a2-3)Gal(b1-4)[Fuc(a1-3)]GlcNAc. The gist of the method:
as §1

Assay [15] concerns the target Neu5Gc(a2-6)Gal(b1-4)GlcNAc. The gist of the method:
as §1

The target of a further assay is Neu5Gc(a2-6)GalNAc. The gist of the method:
as §1

Assay [16] concerns the target Neu5Gc(b2-6)Gal(b1-4)GlcNAc. Put shortly: as §1

This is one part of the list.

B1: cupB6 (Pseudomonas aeruginosa), Q02SP7 (protein)
chain: MSMRLFPGRVSLRRRPGAQARQALVLGLCCLTGGQAWALNEVALNCSFGNGKGLPWRVVNELTSGTAKGTVLFARPVSLFLSYKPQASQEAHELVLGGNWSGVGYPGPYGTVASDVKGIGYRISVDAQDGVKRVIPVDNQPHALDKRVTSFSGSTTSDYLQELVLTVDPGELPAGDLKVTSVSGSATLNLWAVDRLKGEASIGSVLAVPADNYPTGVCRKPYSLIGPASIAIGGGPPPPPIPKKCKVEVGREINVKLGSVALKNFPRVNDTSTERSFDISLSECAALAKPEIAFRDKYVSAQQADPTILSLKSGGAAGFGIVVKNGLDQQRIRFDGTPYPMRRVGDSADLPLSAAYIRIGAEGELKAGVADGAAEFTFTFP
With B1, the “glycan array binding signal (z-score)” value with Neu5Ac(a2-8)Neu5Ac is -0.002; in [1] it was -0.053; in assay [2], 0.285; in assay [3] it was -0.11; in assay [4] it was -0.142; in [5] it was -0.074. In addition, the “glycan array binding signal (z-score)” value in assay [6] was -0.043; in [7] it was 0.165; in the assay with Neu5Ac(b2-6)GalNAc it was -0.126; in assay [8], -0.068; in assay [9], -0.009; in [10], -0.145. Moreover, the “glycan array binding signal (z-score)” value in assay [11] is -0.039; in [12], -0.08; in the assay with Neu5Gc(a2-3)Gal(b1-4)Glc, -0.114; in assay [13], -0.071; in assay [14], 0.036; in [15], -0.049. In addition, the “glycan array binding signal (z-score)” value in the assay with Neu5Gc(a2-6)GalNAc was -0.028; in assay [16], -0.096.

(Values after the supplement of paper PMC8728848.)
